Experimental data reported in PubChem BioAssay AID1508623 (National Center for Advancing Translational Sciences (NCATS), 2021).
In all, about 48,000 compounds went through this assay and about 450 (0.94%) were called active. About 19% were inconclusive and are not listed. The call rests on the fitted dose curve; in most records, active means well fitted inhibition curve with a large enough effect; inconclusive means small, poorly fitted or top-dose-only effect; inactive means no such curve, though single readings can be large or run the other way. Some of the results follow.

Experiment: Primary qHTS for Identification of Small Molecule Inhibitors of Huntingtin Promoter Activity; further: nearly all actives have a fitted effect of over 50% in size
Details: HEK293 HTT promoter firefly luciferase reporter (activity 0% = vehicle and -100% = no light), 24 h; series mostly up to 57.5 µM; activity change, negative = inhibition: at the top concentration
Source text: Assay Provider: Russell L. Margolis M.D.
Department Neurology, Johns Hopkins University School of Medicine, Baltimore, MD
Huntington's Disease (HD) is a neurodegenerative disorder caused by a CAG repeat expansion in exon 1 of huntingtin (HTT). While there are currently no disease-modifying treatments for HD, recent efforts have focused on development of nucleotide-based therapeutics to lower HTT expression. As an alternative to siRNA or oligonucleotide methods, we hypothesized that suppression of HTT expression might be accomplished by small molecules that either (1) directly decrease HTT expression by suppressing HTT promoter activity or (2) indirectly decrease HTT expression by increasing the promoter activity of HTT-AS, the gene antisense to HTT that appears to inhibit expression of HTT.
We developed and employed a high throughput screen for modifiers of HTT and HTT-AS promoter activity using luminescent reporter HEK293 cells; of the 52,041 compounds tested, we identified 898 replicable hits. We used a rigorous stepwise approach to assess compound toxicity and the capacity of the compounds to specifically lower huntingtin protein in 5 different cell lines, including HEK293 cells, HD lymphoblastoid cells, mouse primary neurons, HD iPSCs differentiated into cortical-like neurons, and HD hESCs. We found no compounds which were able to lower huntingtin without lowering cell viability in all assays, though the potential efficacy of a few compounds at non-toxic doses could not be excluded.
SEQUENCE No. (1, 2, 3, etc.); […] (e.g., Cells, Incubation, Reagent, etc.); VALUE and DESCRIPTION.
1; Reagent; 4 uL; 2,500 Hek293 luciferase reporter cells per wells
3; Compound; 23 nL; Control inhibitor / compound library
5; Reagent; 2.5 uL; Firefly Luc reagent; Dual-Glo Luciferase Reporter Assay System (Promega)
6; Time; 10 min; room temperature incubation
7; Detection; Luminescence; FLuc
NOTES (numbers refer to sequence above)
1; High-throughput screening, measuring luminescence from a Hek293 luciferase reporter, was performed in 1,536 well white-walled tissue-culture treated plates. 2,500 cells were plated in 4 µL of Opti-MEM per well using a Multidrop Combi Reagent Dispenser (ThermoFisher).
2; Assay plates were cultured for 24 hours.
3; Control inhibitor (PTC124; final concentration of 50 uM) and compound library (at final concentrations of 460 nM - 57.5 uM) were added to the assay plate using the Kalypsis Pintool Robotic System equipped with 1536 pinheads.
4; Cells were then incubated for 24 hours at 37 degrees C prior to luminescence measurements.
5; In all cases, luminescence was measured using the Dual-Glo Luciferase Reporter Assay System (Promega) following the manufacturer's instructions.
6; Room temperature incubation.
7; Luminescence signal was obtained using the PerkinElmer ViewLux plate reader. Results were normalized to vehicle control (0% activity) and zero RLU (-100% activity).
Potency means the concentration at half of the fitted maximal effect.

Activity change, negative = inhibition, inactive:
Cn1ccnc1SCC(=O)Nc1cc(Cl)ccc1Cl -18.1%, CCCCNC(=O)CCc1c(C)nc2c(c(C)nn2-c2ccccc2)c1C -6.98%, CCN(CC)c1ccc(C2C(C(N)=O)=C(C)Nc3ncnn32)cc1 (stereo unspecified) -1.99%, Cc1ccccc1CN1CCCN(CC(=O)Nc2c(C)cccc2C)S1(=O)=O 0%, COc1cccc(OCc2nc3ccccc3n2CCOc2cccc(C)c2)c1 -1.51%, CCC(C(=O)Nc1ccc(C(C)=O)cc1)n1c(C)c2cnn(-c3ccccc3)c(=O)c2c1C (stereo unspecified) -11.7%, Cn1c(=O)c2c(nc(SCC(=O)Nc3ccc(F)cc3)n2Cc2ccccc2)n(C)c1=O -11.4%, Fc1ccc(CNc2nc(-c3ccccc3)cc(C(F)(F)F)n2)cc1 -23.2%, Cc1cc(O)c(C(C)C)cc1Cl 11.5%, CCc1ccc(C2c3c(oc4ccc(C)cc4c3=O)C(=O)N2c2nc(C)c(C)s2)cc1 (stereo unspecified) 6.36%, COc1cc(NC(=O)Cn2cc(S(=O)(=O)c3ccccc3)c(=O)c3ccccc32)cc(OC)c1 -12.5%, COc1cccc(-c2ccc3c(N)c(C(=O)Nc4ccc(C)c(F)c4)sc3n2)c1 -8.23%, COc1ccc(-c2cc(C(F)(F)F)nc(SCCC(=O)Nc3c(C)cccc3C)n2)cc1 -1.7%, O=C(NCC12CC3CC(CC(C3)C1)C2)c1cc2nc(-c3ccc(F)cc3)cc(C(F)(F)F)n2n1 -4.98%, O=C(Nc1ccc(F)cc1F)c1ccc(-n2cnnc2)cc1 3.81%, Cc1cc(-n2c(C)nc3ccccc3c2=O)ccc1NC(=O)c1cccc([N+](=O)[O-])c1 2.37%, Cc1cccc(NC(=O)CSc2cc(C)c3ccccc3n2)c1 -13.3%, Cc1ccc(Cn2c(CNC(=O)c3ccccc3Br)nc3cccnc32)cc1 -12.4%, CCc1ccccc1NC(=O)Cc1c(C(=O)O)[nH]c2ccc(Cl)cc12 -9.38%, CC(C)CNC(=O)C1=CC(c2ccc3c(c2)OCO3)=NS(=O)(=O)N1C -12.7%, Cc1ccc(-n2c(=O)c3oc4ccccc4c3n(CC(=O)Nc3ccccc3)c2=O)cc1C -29.9%, Oc1c(C(c2ccccc2)N2CCN(c3ccccc3)CC2)sc2nc(-c3ccco3)nn12 (stereo unspecified) -1.71%, O=C(NCCc1ccccc1)C(=O)Nc1cccc(Br)c1 13.4%, CO/N=C(\C(=O)O)c1csc(NC(=O)CCl)n1 -0.924%, Cn1c(CCNC(=O)c2ccco2)nc2cc(NC(=O)COc3ccc(Cl)cc3)ccc21 -12%, O=C(CSc1nc(=O)[nH]c2c1CCC2)NCc1ccccc1 -18.1%, C=CC1=C(C(=O)O)N2C(=O)[C@@H](NC(=O)C(=NO)c3csc(N)n3)[C@H]2SC1 -2.19%, Cc1ccc(C(=O)COC(=O)CCC(=O)Nc2ccc(Oc3ccccc3)cc2)cc1C -11.2%, COc1ccc(-n2c(SCc3ccccc3F)nc3c([nH]c4ccccc43)c2=O)cc1 -13.5%, Cc1ccccc1CSc1nnc2[nH]c(=O)cc(C)n12 -10.9%, O=C(Cn1cc(S(=O)(=O)Cc2ccc(F)cc2)c2ccccc21)NCc1ccccc1Cl -14.1%, CCOc1ccc(NC(=O)CSc2nnc(-c3ccc(C)cc3)c(-c3ccc(C)cc3)n2)cc1 2.07%, Cc1oc2ncn(CC(C)C)c(=O)c2c1C(=O)NCCCN(Cc1ccccc1)C(C)C -17.6%, O=C(NC1CC(=O)N(c2ccc(Cl)cc2)C1)c1ccc(S(=O)(=O)N2CCCC2)cc1 (stereo unspecified) -17.8%, COc1ccc(CCNC(=O)C(=O)NCC(c2ccco2)S(=O)(=O)c2ccccc2)cc1OC (stereo unspecified) -11.4%, COc1ccc(CCNC(=O)CS(=O)Cc2nc(-c3ccc(C)cc3)oc2C)c(OC)c1 (stereo unspecified) -28%, O=C(Cn1c(=O)nc(-c2ccccc2)c2ccccc21)NCCCc1ccccc1 -12.8%, CCOc1ccccc1NS(=O)(=O)c1cnc(N)nc1 1.21%, Nc1ccc(S(=O)(=O)Nc2cnc3ccccc3n2)cc1 -4.95%, CCc1cccc(NCc2ccccc2-c2nnc(-c3ccccc3Cl)o2)c1 56.7%, CCn1c(CN2CCOCC2)nc2cc(NC(=O)c3cc(OC)c(OC)c(OC)c3)ccc21 -9.71%, CC(=O)c1ccc(NC(=O)C2CCC(CNS(=O)(=O)c3ccc4c(c3)CCCC(=O)N4)CC2)cc1 (stereo unspecified) -4.34%, NCCCC(O)(P(=O)(O)O)P(=O)(O)O, COc1ccc(-c2cc(C(=O)NCc3ccccc3)c3c(-c4ccccc4)[nH]nc3n2)cc1 -14.1%, CC1CCN(C(=O)Cn2ncc3c4ccccc4n(Cc4ccc(Cl)cc4)c3c2=O)CC1 -12.2%, COc1ccccc1N1CCN(C(=O)Cc2c(C(=O)O)c(C)cn2C)CC1 -13.1%, CCCCSCCCNC(=O)C1CCC(CNS(=O)(=O)c2ccccc2)CC1 (stereo unspecified) -28.7%, CCOc1ccc(CCNC(=O)c2ccc3nc(CC)c(CC)nc3c2)cc1 -19.3%, O=C(Nc1ccc(F)cc1F)c1ccc2c(=O)n3c(nc2c1)CCCCC3 15%, CCOc1ccc(OCC(=O)Nc2c(C(=O)Nc3ccc(C)cc3)oc3ccccc23)cc1 0.806%, COc1cccc(-n2c(=O)c3sc4ccccc4c3n(CC(=O)Nc3cccc(Cl)c3)c2=O)c1 -21.4%, O=C1C(CCS(=O)c2ccccc2)C(=O)N(c2ccccc2)N1c1ccccc1 (stereo unspecified) 2.7%, O=c1[nH]c(=O)n([C@H]2C[C@@H](O)[C@@H](CO)O2)cc1C=CBr -1.74%, C=Cc1ccc(Cn2c(=O)n(-c3cccc(C)c3)c(=O)c3c2c2cc(C)ccc2n3C)cc1 -26.4%, CCN(CC)CCCNC(=O)c1ccc2nc(CCc3ccccc3)oc2c1 0%, Cc1ccc(S(=O)(=O)c2c(C)nn(-c3ccccc3)c2OC(=O)c2ccccc2F)cc1 -13.9%, COC(=O)N[C@H](C(=O)N[C@@H](Cc1ccccc1)[C@@H](O)CN(Cc1ccc(-c2ccccn2)cc1)NC(=O)[C@@H](NC(=O)OC)C(C)(C)C)C(C)(C)C, CCOC(=O)c1ccccc1NC(=O)Cn1c(=O)n(Cc2ccccc2)c(=O)c2c(C)c(C)sc21 -10.8%, O=C1C(c2[nH]c3ccccc3c2O)=Nc2ccccc21 -4.93%, CCN(c1ccc(Cl)cc1)S(=O)(=O)c1nnc(NC(=O)C(C)C)s1 0.885%, Cc1ccc(-n2ncc(C(=O)N3CCN(Cc4ccccc4)CC3)c2C2CCN(C(=O)OC(C)(C)C)CC2)c(C)c1 -8.78%, CC(C)(C)OC(=O)N1CCC(c2c(C(=O)NCc3ccco3)cnn2-c2ccc(F)cc2)CC1 -22.1%, Cc1ccc(C)c(S(=O)(=O)c2nnn3c2nc(NCc2ccc4c(c2)OCO4)c2sccc23)c1 -1.51%, CN(C)c1ccc(NC(=O)Cn2c(SCc3ccccc3F)nc3cccnc32)cc1 -20.7%, COC(=O)Nc1ccc(-c2nc(N3CCOCC3)c3cnn(C4CCN(C(=O)OC)CC4)c3n2)cc1 -30.8%, CN(C)c1ccc(C(CNS(=O)(=O)c2ccc(Br)cc2)N2CCOCC2)cc1 (stereo unspecified) -15.8%, O=c1c2sc3ccccc3c2n(Cc2ccccc2F)c(=O)n1CCc1ccccc1 17.5%, O=C(c1ccc2c(Cl)c3c(nc2c1)CCCC3)N1CCN(c2cccc(Cl)c2)CC1 -14.3%, CCc1ccc(-c2ccc(C(=O)Oc3ccc(Br)cc3)cc2)nc1 6.57%, Cc1c(C)n(C)c2ccc(C(=O)NCCCN3CCCCC3)cc12 -14.9%, COc1ccc(NC(=O)C2=C(C)Nc3nc(SCc4ccccc4)nn3C2c2cc(OC)ccc2OC)cc1 (stereo unspecified) -15.6%, Cc1ccc(Cn2ccc(NC(=O)c3cc(-c4ccc(Cl)c(Cl)c4)on3)n2)cc1 11.6% [at 11.5 µM], COc1ccc(CNc2ncnc3c2c(-c2ccccc2)cn3-c2ccccc2)cc1 -22.8%, CCN(CC)S(=O)(=O)c1ccc(C(=O)N=c2sc3cccc(OC)c3n2C)cc1 -8.64%, Cc1c(-c2cccc(NC(=O)C(C)(C)C)c2)nc2ncccn12 5.46%, Cc1ccc(-c2nc(SCc3ccc(Br)cc3)n3[nH]c(=O)cc3n2)cc1 -8.95%, COc1ccccc1CNC(=O)c1cccc(Nc2nc3ccccc3n3nnnc23)c1 -8.68%, Cc1ccc2nc(N3CCN(c4cccc(C)c4C)CC3)c3nnnn3c2c1 -9.86%, CCC1CN(C(=O)N2CCC(C(=O)NCc3cccs3)CC2)c2cc(C)ccc2O1 (stereo unspecified) -29.6%, CCc1cccc(NC(=O)CSc2ncc3c(n2)-c2ccccc2N(Cc2ccccc2C)S3(=O)=O)c1 -15.3%, CCOc1ccc(-c2cc(C(=O)NCc3ccccc3)c3c(-c4ccc(CC)cc4)[nH]nc3n2)cc1 -8.97%, Cc1ccccc1Nc1c2c(nc3nncn13)CCC2 -22.9%, COc1ccc(NC(=O)Cc2csc(C)n2)cc1 14.1%, Oc1ccc(CCNCCCCCCNCCc2ccccc2)cc1O 3.24%, CC(=O)c1ccc(NC(=O)NCCc2c[nH]c3ccccc23)cc1 18.7%, CCCCCn1c(=O)[nH]c2cc(C(=O)Nc3ccc(F)cc3)ccc2c1=O 8.35%, CCOC(=O)C1CCN(S(=O)(=O)c2cc(-c3cc(C)no3)ccc2C)CC1 -28.3%, Cc1cccc(-c2nc3scc(CCNC(=O)c4ccccc4Cl)n3n2)c1 -13.1%, Cc1cccc(NC(=O)CSc2nnc(CNC(=O)c3c(F)cccc3Cl)o2)c1C -0.974%, CC(C)c1nn2c(=O)cc(COC(=O)c3ccc(NC(=O)CCc4ccccc4)cc3)nc2s1 23.6%, CC1CCN(CCNC(=O)c2ccc(Cn3c(SCc4ccccc4)nc4cccnc43)cc2)CC1 11.6%, CC(C)c1ccc(NC(=O)c2ccc(NC(=O)CCS(=O)(=O)c3cccs3)cc2)cc1 -18.7%, Cc1ccc(CCNc2nc3c(S(=O)(=O)c4ccc(C)cc4)nnn3c3ccsc23)cc1 0.466%, Cc1ccc(-n2ncc3c(NCCCc4ccccc4)ncnc32)cc1C 2.43%, Cc1c(NC(=O)c2sc3c([N+](=O)[O-])cccc3c2Cl)cccc1-c1nc2ccccc2o1 9.09%

Potency, active:
COc1ccccc1N1CCN(C(CNC(=O)C(=O)NCCc2ccccc2)c2cccnc2)CC1 (stereo unspecified) 7.08 µM
